In PubChem BioAssay AID588855 (National Center for Advancing Translational Sciences (NCATS), 2011):
The campaign covered roughly 410,000 compounds. About 5,000 (1.2%) were called active. Inconclusive results, whose numbers are uncertain, are shown with a selection of clear calls. The call rests on the fitted dose curve; in most records, active means well fitted inhibition curve with a large enough effect; inconclusive means small, poorly fitted or top-dose-only effect; inactive means no such curve, though single readings can be large or run the other way. Where the call is inconclusive, the potency comes from a doubtful curve fit.
Potency means the concentration at half of the fitted maximal effect; tags describe the fitted curve by direction and shape.

Assay: qHTS for Inhibitors of TGF-b; further: nearly all actives have a fitted effect of over 65% in size
Conditions: HepG2 CAGA-GFP TGF-b/SMAD3 reporter, GFP fluorescence, 18 h, TGF-beta stimulated, 500 pg/mL final; series mostly up to 46.1 µM
Outline: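 Per well, imaged GFP fluorescence of HEPG2 CAGA-GFP cells gives the signal; cells get compound, then TGF-beta (500 pg/mL final), 18 h at 37 degrees C; %Activity versus -TGF-beta and +DMSO controls.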
For `Cc1ccc(-n2cc(CN3CCN(Cc4nccn4C)CC3)c(-c3cccc(C)c3)n2)cc1`, the Potency was inconclusive: 20 µM [inhibitor, single point]. For `COc1ccccc1N1CCN(C(=O)CCn2nc(C)c(S(=O)(=O)N3CCCC3)c2C)CC1`, the Potency was inconclusive: 8.91 µM [inhibitor, single point]. For `O=S(=O)(Nc1cc(Sc2ncn[nH]2)c(O)c2ccccc12)c1ccccc1`, the Potency was active: 2.51 µM. In the case of `CCOC(=O)C1CCN(S(=O)(=O)CCNC(=O)c2ccc(F)cc2)CC1`, the Potency is reported as inconclusive: 35.5 µM [inhibitor, single point]. For `CC(=O)C(=Cc1ccc(C(=O)O)cc1)C(C)=O`, the Potency was “inactive”. In the case of `Cc1ccc(NS(=O)(=O)c2ccc3c(c2)[C@H]2C=CC[C@H]2[C@@H](c2ccc(F)cc2)N3)cc1C`, the Potency is reported as active: 8.91 µM. For `COc1ccc(C(=O)CSc2nnc(CNc3ccc(C)cc3C)n2Cc2ccco2)cc1`, the Potency was inconclusive: 20 µM [inhibitor, partial curve, poor fit]. In the case of `Cc1ccccc1OCC(=O)Nc1ccccc1NC(=O)c1ccco1`, the Potency is reported as “inactive”. In the case of `Cc1cc(C)n(CC(=O)n2c(C)c(C)c3ccccc32)n1`, the Potency is reported as inconclusive: 0.708 µM [inhibitor, full curve, poor fit]. In the case of `CNC(=O)COc1ccccc1C(=O)Nc1ccccc1`, the Potency is reported as “inactive”. In the case of `Cc1ccc(C(=O)N/C(=C\c2cn(C)c3ccccc23)C(=O)OCCN(C)C)cc1`, the Potency is reported as inconclusive: 12.6 µM [inhibitor, single point]. In the case of `CC(C)(C)c1ccc(CN(Cc2ccccc2)C(c2ccccn2)c2nnnn2C(C)(C)C)cc1` (stereo not drawn), the Potency is reported as “inactive”. In the case of `CCOCCCNC(=S)N(Cc1ccccc1)Cc1nc2ccccc2c(=O)[nH]1`, the Potency is reported as inconclusive: 35.5 µM [inhibitor, single point]. With `CCN(CC(=O)Nc1c(F)cccc1F)C(=O)CCOc1ccc(C)cc1` the Potency was inconclusive: 0.112 µM [inhibitor, full curve, poor fit]. For `COc1ccc(/C=C(\C#N)C(=O)Nc2ccc3[nH]c(=O)[nH]c3c2)cc1`, the Potency was “inactive”. With `C=CC[C@@H](CC(=O)N[C@H](CO)Cc1ccccc1)C(=O)N[C@H](COC(=O)[C@@H](CC=C)Cc1ccc(F)cc1)Cc1c[nH]c2ccccc12` the Potency was inconclusive: 17.8 µM [inhibitor, single point]. In the case of `C/C(CC(=O)Nc1ccc([N+](=O)[O-])cc1)=N\NC(=O)c1ccccc1O`, the Potency is reported as inconclusive: 11.2 µM [inhibitor, single point]. In the case of `COc1cc(Cl)c(C)cc1NC(=O)CSc1cc(-c2ccccc2)nc(C)n1`, the Potency is reported as “inactive”. In the case of `O=C(Cc1ccccc1)N/N=C/c1cccn1-c1ccc([N+](=O)[O-])cc1`, the Potency is reported as inconclusive: 5.62 µM [inhibitor, partial curve, poor fit]. With `CC(C)C[C@H]1CNC(=S)N1C[C@H]1CCCN1C[C@H](Cc1ccc(O)cc1)N1C[C@H](Cc2ccccc2)N(CC2CCCCC2)C1=S` the Potency was inconclusive: 35.5 µM [inhibitor, single point]. For `COc1ccc(SCC(CC(C)C)N2CCN(CCc3ccccc3)CCC2=O)cc1` (stereo not drawn), the Potency was inconclusive: 22.4 µM [inhibitor, single point]. With `CN(C)CCc1cc2c(c3c1ccc1ccccc13)OCO2` the Potency was inconclusive: 28.2 µM [inhibitor, single point]. For `O=C(NCc1ccco1)C1CC(c2c(Cl)cccc2Cl)=NO1` (stereo not drawn), the Potency was inconclusive: 17.8 µM [inhibitor, single point]. For `Cc1nc(NC(=O)c2c(-c3ccccc3)c(-c3ccccc3)nn(C)c2=O)sc1C`, the Potency was “inactive”. With `CC(C)Oc1ncnc2c1[nH]c1ccccc12` the Potency was inconclusive: 11.2 µM [inhibitor, partial curve, poor fit]. With `Cc1ccc(NC(=O)C(C)SCc2ccccc2)cc1` (stereo not drawn) the Potency was inconclusive: 35.5 µM [inhibitor, single point]. In the case of `Cc1ccc(C(C[N+](=O)[O-])c2c(-c3ccccc3O)[nH][nH]c2=O)cc1` (stereo not drawn), the Potency is reported as inconclusive: 11.2 µM [inhibitor, partial curve, poor fit]. With `CCc1nnc(NC(=O)c2sc3nc4c(cc3c2N)CCCCCC4)s1` the Potency was inconclusive: 1.12 µM [inhibitor, partial curve, poor fit]. For `Cc1ccc(CNC(=O)c2c(C)cc(=O)oc2C)cc1`, the Potency was “inactive”. With `O=C(O)/C=C\c1cccc(-n2nnnc2SCc2ccccc2F)c1` the Potency was “inactive”. In the case of `O=C(CSC1=NCCS1)Nc1ccnc2ccccc12`, the Potency is reported as inconclusive: 7.08 µM [inhibitor, partial curve]. For `O=C(CSc1nnc(NC(=O)c2c(F)cccc2Cl)s1)Nc1ccccc1F`, the Potency was “inactive”. For `COc1ccc(CCNC(=O)c2oc(=O)c3ccccc3c2-c2ccccc2)cc1OC`, the Potency was “inactive”. In the case of `O=C(NCCN1CCN(c2ccccc2)CC1)c1cccc(Br)c1`, the Potency is reported as “inactive”. With `COc1ccc(CNC(=O)CN2C(=O)COc3ccc(S(=O)(=O)N4CCC(C)CC4)cc32)cc1` the Potency was inconclusive: 35.5 µM [inhibitor, single point]. With `O=C(Nc1c(Cl)cc([N+](=O)[O-])cc1Cl)c1cc(Cl)ccc1O` the Potency was active: 1.26 µM. With `COc1cc(NC(=O)CCS(=O)(=O)c2nc(-c3ccc4c(c3)OCO4)cc(C(F)(F)F)n2)cc(OC)c1OC` the Potency was “inactive”. In the case of `COc1ccc(C(CCN2CCOCC2)c2c(OC)cc(OC)c3ccc(=O)oc23)cc1` (stereo not drawn), the Potency is reported as inconclusive: 0.282 µM [inhibitor, full curve, poor fit]. In the case of `COC(=O)c1sc(N2C(=O)c3oc4ccccc4c(=O)c3C2c2ccc(O)cc2)nc1C` (stereo not drawn), the Potency is reported as “inactive”. In the case of `COCCCN1C(=O)c2[nH]nc(-c3ccccc3O)c2C1c1ccc(OCc2ccccc2)cc1` (stereo not drawn), the Potency is reported as active: 20 µM. With `CC(=O)c1c(N2CCN(Cc3ccccc3)CC2)nc(=S)n(-c2ccccc2)c1C` the Potency was “inactive”. With `CCOC(=O)c1c(-c2ccc(C)cc2)csc1NC(=S)NC(=O)c1ccccc1` the Potency was “inactive”. In the case of `COc1ccccc1-c1nnc2sc(-c3ccc(N(C)C)cc3)nn12`, the Potency is reported as inconclusive: 6.31 µM [inhibitor, full curve, poor fit]. For `Cc1ccc2nc(C3CCN(S(=O)(=O)c4ccc5ccccc5c4)CC3)[nH]c2c1`, the Potency was inconclusive: 2.51 µM [inhibitor, full curve, poor fit]. In the case of `Cc1ccc(S(=O)(=O)NCCc2cn3nc(C)c(C)nc3n2)cc1C`, the Potency is reported as “inactive”. With `COc1cc(-c2coc3c(C(=O)Nc4ccc(C(C)C)cc4)cccc23)ccc1O` the Potency was inconclusive: 22.4 µM [inhibitor, single point]. For `Cc1ccc(NC(=S)NNc2ccc([N+](=O)[O-])cc2S(=O)(=O)Nc2ccccc2C(=O)O)cc1C`, the Potency was inconclusive: 17.8 µM [inhibitor, single point]. With `Cc1ccc(-c2n[nH]c(=S)n2C)cc1Cl` the Potency was “inactive”. With `CCn1c(=O)[nH]c2cc(C(=O)N3CCN(c4ccccc4)CC3)ccc2c1=O` the Potency was “inactive”. In the case of `CC(=O)c1ccc(-c2cc([C@H]3[C@H]4C=CC[C@@H](C)[C@@H]4C(=O)N3Cc3ccccc3)ccc2F)cc1`, the Potency is reported as inconclusive: 22.4 µM [inhibitor, single point]. With `OC(c1cccc(F)c1)c1ncc(-c2ccc3ccccc3c2)[nH]1` (stereo not drawn) the Potency was “inactive”. In the case of `Cc1cccc(NC(=S)/N=C(\N)Nc2nc(C)c3cc(C)ccc3n2)c1`, the Potency is reported as inconclusive: 3.98 µM [inhibitor, full curve, poor fit]. For `CCCCCCOc1ccc(N2C(=O)CC(N3CCN(CCN=CC4=C(O)CC(C)(C)CC4=O)CC3)C2=O)cc1` (stereo not drawn), the Potency was “inactive”. With `CC(=O)c1ccc(NC(=O)Nc2ccc3c(c2)nc(C)n3C)cc1` the Potency was inconclusive: 35.5 µM [inhibitor, single point]. With `Cc1cccc(NC(=S)NCCc2ccc(S(N)(=O)=O)cc2)c1C` the Potency was “inactive”. With `C[C@@H]1CN([C@@H](C)CO)C(=O)CCCn2nncc2CO[C@@H]1CN(C)C(=O)c1ccncc1` the Potency was “inactive”. For `COc1ccccc1NC(=O)C1CCN(S(=O)(=O)c2ccc3[nH]c4c(c3c2)CCCCC4)CC1`, the Potency was inconclusive: 1.58 µM [inhibitor, partial curve, poor fit]. In the case of `CCOc1ccc(-n2cnc3sc4c(c3c2=O)CCCC4)cc1`, the Potency is reported as “inactive”. In the case of `COc1cc(NC(=O)CN2c3ccccc3CC2C)cc(OC)c1OC` (stereo not drawn), the Potency is reported as “inactive”. With `Oc1ccc(-c2nc(-c3ccccc3)c(-c3ccc(Br)cc3)[nH]2)cc1` the Potency was inconclusive: 15.8 µM [inhibitor, partial curve, poor fit]. For `Cc1nn(-c2ccccc2)c2c1cc1c(=O)n(C)c(=O)nc-1n2-c1cccc(Cl)c1`, the Potency was “inactive”. With `O=C(COC(=O)C(Cc1c[nH]c2ccccc12)NC(=O)c1ccc(Cl)cc1)c1ccc(Cl)cc1` (stereo not drawn) the Potency was inconclusive: 22.4 µM [inhibitor, single point]. In the case of `CC(=O)c1ccc(OCCCC(=O)N2CCN(S(=O)(=O)c3ccc(C(C)C)cc3)CC2)cc1`, the Potency is reported as inconclusive: 8.91 µM [inhibitor, partial curve, poor fit]. For `C=CCOc1ccc(C2C(C#N)=C(N)N(Nc3ccccc3)C3=C2C(=O)CC(C)(C)C3)cc1OC` (stereo not drawn), the Potency was inconclusive: 35.5 µM [inhibitor, single point]. With `O=C(NNc1nc(-c2ccc(F)cc2)cs1)c1ccccc1` the Potency was “inactive”. With `CN(C)S(=O)(=O)c1ccc2c(c1)N(CC(=O)Nc1ccc(F)cc1)C(=O)CS2` the Potency was inconclusive: 6.31 µM [inhibitor, single point]. In the case of `Clc1ccc(COn2c(-c3ccc(Cl)cc3Cl)nc3ncccc32)cc1`, the Potency is reported as inconclusive: 22.4 µM [inhibitor, single point]. In the case of `CC(/C=C/c1ccccc1)=N\NC(=O)c1cc(C)nc2ccccc12`, the Potency is reported as “inactive”.
